Source: PubChem BioAssay AID1345083 (National Center for Advancing Translational Sciences (NCATS), 2018)
About 6,200 (6.6%) of roughly 94,000 compounds were called active. Inconclusive means that the source gave no clear call. Such entries were picked first, then a sample of the others. Calls come from the whole dose curve; as a rule, active = well fitted inhibition curve with a large enough effect; inconclusive = small, poorly fitted or top-dose-only effect; inactive = flat fitted curve, though single readings scatter. A potency beside an inconclusive call is a rough fit, not a confirmed value.

Experiment: Cytotoxic Profiling in HEK 293 Cell Line of Diverse Libraries Using Quantitative High-Throughput Screening; note: nearly all actives have a fitted effect of over 60% in size
Details: HEK 293 viability, ATP luminescence (CellTiter-Glo), 48-72 h; series mostly up to 115 µM
Method in brief: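 HEK 293 cells seeded at 250 cells/well were exposed to compound for 48 or 72 hr at 37 degree Celsius. Viability taken as ATP content by CellTiter-Glo luminescence.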
Potency is the fitted concentration of half-maximal effect; tags give direction and shape of the fitted curve.

**Q.** Which Potency does the source give for `CCCCn1c(=O)c(C(=O)NCCc2ccc(Cl)cc2)nc2cccnc21` here?
**A.** inconclusive: 50.1 µM [inhibitor, partial curve, poor fit]

**Q.** With `O=C(CC1CCCC1)N1CCCCCC1c1nnc(-c2ccccc2)o1` (centres undefined) as the compound, how does the Potency read?
**A.** inconclusive: 56.2 µM [inhibitor, partial curve, poor fit]

**Q.** Which Potency does the source give for `CC(C)(C)CCN1CC(Oc2cccc(C(=O)N3CCOCC3)c2)C1` here?
**A.** inconclusive: 39.8 µM [inhibitor, partial curve, poor fit]

**Q.** With `O=C(CCCc1ccccc1)N1CCCC1c1nc(C2CCOCC2)no1` (centres undefined) as the compound, how does the Potency read?
**A.** inconclusive: 89.1 µM [inhibitor, single point]

**Q.** With `CC(C)c1nnnn1[C@H]1CO[C@H]2[C@@H]1OC[C@H]2OC(=O)Nc1cccc(C#N)c1` as the compound, how does the Potency read?
**A.** inconclusive: 126 µM [inhibitor, single point]

**Q.** Which Potency does the source give for `COCCOCC1(CNC(=O)Nc2cccnc2)C[C@@H](O)[C@@H](O)C1` (some centres undefined) here?
**A.** inconclusive: 56.2 µM [inhibitor, single point]

**Q.** Which Potency does the source give for `CCCC(=O)Nc1cc(-c2ccncc2)nn1C` here?
**A.** inactive

**Q.** Which Potency does the source give for `COc1cccc(NC(=O)N2CCC(Cn3cc(C4CCCC4)nn3)CC2)c1` here?
**A.** inactive

**Q.** Which Potency does the source give for `Cn1ncc2c(C(=O)NCC#N)cc(-c3ccccc3F)nc21` here?
**A.** inconclusive: 100 µM [inhibitor, partial curve, poor fit]

**Q.** Which Potency does the source give for `CCNC(=O)NCC1Cn2cccc2CN1C` (centres undefined) here?
**A.** inactive

**Q.** For `O=C(Cc1ccc(F)cc1)NC1CCN(c2ccc3nnc(C4CC4)n3n2)C1` (centres undefined), which Potency is on record?
**A.** inactive

**Q.** Which Potency does the source give for `Cc1ccc2c(n1)N(C)[C@H](CO)CCN(Cc1cn(C)c3ccccc13)C2` here?
**A.** inconclusive: 89.1 µM [inhibitor, partial curve, poor fit]

**Q.** With `O=C1N(Cc2ccccc2)CCOC12CCN([S+](=O)([O-])c1ccccc1)CC2` as the compound, how does the Potency read?
**A.** inconclusive: 79.4 µM [inhibitor, partial curve]

**Q.** With `CN(C)c1ccc(CN2CCC[C@H]2c2nc(-c3ccnc(N4CCC(C(N)=O)CC4)c3)no2)cc1` as the compound, how does the Potency read?
**A.** inconclusive: 89.1 µM [inhibitor, single point]

**Q.** Which Potency does the source give for `CN(C)CCNC(=O)c1ccnc(-c2nnc3ccc(Nc4ccccc4)nn23)c1` here?
**A.** inconclusive: 126 µM [inhibitor, single point]

**Q.** For `C[C@H](C(=O)N1CCOCC1)C1CC[C@@]2(C)Cc3sc(CS(=O)(=O)C(C)(C)C)nc3[C@@H](C)[C@@H]2[C@H]1O` (some centres undefined), which Potency is on record?
**A.** inactive

**Q.** With `C=CCn1cc2c3c(cccc31)[C@H](CC(C)C)N[C@H](C(=O)NCCC)C2` as the compound, how does the Potency read?
**A.** active: 50.1 µM

**Q.** With `Cc1nn(-c2ccc(F)cc2)c(Oc2ccccc2)c1CCC(=O)N(C)C(C)C` as the compound, how does the Potency read?
**A.** inconclusive: 50.1 µM [inhibitor, partial curve, poor fit]

**Q.** Which Potency does the source give for `O=S(=O)(c1cccc(C(F)(F)F)c1)N1CCN(c2ccc3nnc(C4CC4)n3n2)CC1` here?
**A.** inconclusive: 50.1 µM [inhibitor, partial curve, poor fit]

**Q.** With `O=C(NCC1CC1)C1CCCN(Cc2cccc(-c3ccsc3)c2)C1` (centres undefined) as the compound, how does the Potency read?
**A.** inconclusive: 39.8 µM [inhibitor, partial curve, poor fit]

**Q.** Which Potency does the source give for `CCOC(=O)[C@H]1[C@@H](O)C(=O)N(Cc2ccccc2)C12CCN(C(=O)Nc1ccc3c(c1)OCO3)CC2` here?
**A.** inactive

**Q.** For `CCCc1cc(C(=O)N2CCCC3(CCC(=O)N(CCOC)C3)C2)cs1` (centres undefined), which Potency is on record?
**A.** inactive

**Q.** With `Oc1ccc(-c2nc(C3CC3)nc3c2CN(CC2CCCCC2)CC3)cc1` as the compound, how does the Potency read?
**A.** active: 79.4 µM

**Q.** For `O=C(Nc1ccc2c(c1)OCO2)C1CCCN(c2cn[nH]c(=O)c2)C1` (centres undefined), which Potency is on record?
**A.** inactive

**Q.** With `O=C(NCCc1ccccc1)N1CCC(N2CC3CC(C2)[C@H]2CCCC(=O)N2C3)CC1` (some centres undefined) as the compound, how does the Potency read?
**A.** inactive

**Q.** With `O=C(c1ccccc1F)N1CCC(c2nn(-c3ccc(F)cc3)c(=O)[nH]2)CC1` as the compound, how does the Potency read?
**A.** inactive

**Q.** Which Potency does the source give for `O=C([C@@H]1C[C@H](c2ccc(F)cc2)N(Cc2ccccc2Cl)C1)N1CC(O)C1` here?
**A.** active: 70.8 µM

**Q.** Which Potency does the source give for `c1ccc(CN2CCC(N3CC(OCC4CC4)C34CCOCC4)CC2)cc1` (centres undefined) here?
**A.** inconclusive: 50.1 µM [inhibitor, partial curve, poor fit]

**Q.** For `COc1cccc(CC(=O)Nc2ccc3c(c2)CN(C2CCCCC2)C(=O)CO3)c1`, which Potency is on record?
**A.** inconclusive: 50.1 µM [inhibitor, partial curve, poor fit]

**Q.** For `COc1ccccc1N1CCN(CC[C@H]2CN(C(=O)NC(C)C)CC[C@H]2CC(=O)O)CC1`, which Potency is on record?
**A.** inactive

**Q.** For `O=C([C@H]1CCCN1[S+](=O)([O-])c1cccs1)N1CCC(N2CCOC2=O)CC1`, which Potency is on record?
**A.** inactive

**Q.** Which Potency does the source give for `O=C(NC1CCN(c2cc(-c3ccccc3)[nH]n2)C1)c1ccccc1Cl` (centres undefined) here?
**A.** inconclusive: 70.8 µM [inhibitor, single point]

**Q.** Which Potency does the source give for `CN(Cc1ccccc1)C(=O)C1CCN(c2cc(C3CC(O)C3)ncn2)CC1` (centres undefined) here?
**A.** inconclusive: 31.6 µM [inhibitor, partial curve, poor fit]

**Q.** For `COc1ccc(-c2cc(N3CCC(NC(=O)CCc4ccccc4)CC3)n[nH]2)cc1`, which Potency is on record?
**A.** inconclusive: 50.1 µM [inhibitor, partial curve, poor fit]

**Q.** With `Cc1ccc(-c2ccc(C(=O)NCCCn3ccnc3C(C)C)cn2)cc1C` as the compound, how does the Potency read?
**A.** active: 39.8 µM

**Q.** For `O=C(c1ccccc1OCC1CCCN(Cc2ccc(F)cc2)C1)N1CCCCC1` (centres undefined), which Potency is on record?
**A.** inconclusive: 56.2 µM [inhibitor, partial curve, poor fit]

**Q.** For `CCOc1cc(=O)n2c(c1C(=O)Nc1cc(OC)c(Cl)cc1OC)CCCC2`, which Potency is on record?
**A.** inconclusive: 12.6 µM [inhibitor, full curve]

**Q.** For `COC[C@@H]1CN(C(=O)CCn2nc(C)cc2C)C[C@H]1c1ccncc1`, which Potency is on record?
**A.** inactive

**Q.** With `O=C(NCC1CC1)c1nc2c(o1)CCN(Cc1cccc(F)c1F)CC2` as the compound, how does the Potency read?
**A.** inconclusive: 56.2 µM [inhibitor, partial curve, poor fit]

**Q.** For `Cc1ccc(Nc2ccnc(N3CCC(NC(=O)c4ccccc4C)CC3)n2)cc1`, which Potency is on record?
**A.** active: 35.5 µM

**Q.** Which Potency does the source give for `COc1ccc(NC(=O)CCC2CCN(C(=O)c3ccc(OC)o3)CC2)c(OC)c1` here?
**A.** inconclusive: 79.4 µM [inhibitor, partial curve, poor fit]

**Q.** With `CCC(C)NC(=O)CN1CN(c2ccccc2)C2(CCN(C(=O)c3ccccc3OC)CC2)C1=O` (centres undefined) as the compound, how does the Potency read?
**A.** inconclusive: 89.1 µM [inhibitor, single point]

**Q.** With `COc1cccc(-c2nc(-c3c(C)noc3C)cc3[nH]c(C)cc23)c1OC` as the compound, how does the Potency read?
**A.** inconclusive: 31.6 µM [inhibitor, partial curve, poor fit]

**Q.** With `Cc1ccc(CNC(=O)C2(CCO)CCN(Cc3ccccc3)C2)o1` (centres undefined) as the compound, how does the Potency read?
**A.** inactive

**Q.** For `COc1ccc(-c2cnc3[nH]cc(CC(=O)N(C)C)c3c2)cc1`, which Potency is on record?
**A.** inconclusive: 100 µM [inhibitor, partial curve]

**Q.** Which Potency does the source give for `CC(=O)Nc1ccccc1-c1cn(C)c(=O)n2cc(COc3ccc(Cl)cc3)nc12` here?
**A.** inconclusive: 126 µM [inhibitor, partial curve, poor fit]

**Q.** With `O=C(CN1CC2CC(C1)[C@H]1CCCC(=O)N1C2)NCCc1cccs1` (some centres undefined) as the compound, how does the Potency read?
**A.** inactive

**Q.** For `O=C(CCC1CCCC1)N1CCCC(Cc2nc(C3CCOCC3)no2)C1` (centres undefined), which Potency is on record?
**A.** inconclusive: 56.2 µM [inhibitor, partial curve, poor fit]

**Q.** With `Cc1noc(C2CC3(CCN(C(=O)c4ccoc4)CC3)CN2C)n1` (centres undefined) as the compound, how does the Potency read?
**A.** inactive

**Q.** Which Potency does the source give for `Cc1ccc(NC(=O)N2CCC(c3cc(-c4cccc(C)c4)n[nH]3)CC2)cc1` here?
**A.** inconclusive: 56.2 µM [inhibitor, partial curve, poor fit]

**Q.** For `O=C(NCCc1ccc(Cl)cc1)c1ccc2nc(-c3ccccn3)oc2c1`, which Potency is on record?
**A.** inconclusive: 50.1 µM [inhibitor, partial curve, poor fit]

**Q.** Which Potency does the source give for `COc1ccccc1-c1cc(NCc2cccnc2)c2onc(C)c2n1` here?
**A.** inconclusive: 100 µM [inhibitor, partial curve, poor fit]

**Q.** With `CC[C@H]1CN(C(=O)c2ccnc(Cl)c2)CC[C@H]1CC(=O)NCc1ccccc1` as the compound, how does the Potency read?
**A.** inconclusive: 126 µM [inhibitor, single point]

**Q.** Which Potency does the source give for `COCCN1Cc2ccc(Nc3cccnc3)nc2C(C)(C(=O)Nc2cccc(OC)c2)C1` (centres undefined) here?
**A.** inconclusive: 50.1 µM [inhibitor, partial curve, poor fit]

**Q.** Which Potency does the source give for `CN(Cc1ccccc1)C(=O)c1ccc2c(c1)NC(C)(CCCCN1CCOCC1)CO2` (centres undefined) here?
**A.** inconclusive: 100 µM [inhibitor, partial curve]

**Q.** Which Potency does the source give for `Cc1ccc(-c2nnc(C3CN(C(=O)CC4CCCCC4)CC34CCOCC4)o2)cc1` (centres undefined) here?
**A.** inconclusive: 79.4 µM [inhibitor, partial curve]

**Q.** For `COc1ccccc1-c1ccnc(N[C@H]2CO[C@H]3[C@@H]2OC[C@@H]3NC(=O)Nc2cccc(C(F)(F)F)c2)n1`, which Potency is on record?
**A.** inactive

**Q.** For `O=C(NCc1ccc(F)cc1)N1CC[C@@H]2COC(=O)N(Cc3ccccc3)[C@@H]2C1`, which Potency is on record?
**A.** inconclusive: 39.8 µM [inhibitor, full curve, poor fit]

**Q.** With `CCc1ccc(C(=O)N2CCCC(c3noc(-c4cc5c(=O)[nH]c(C)cn5n4)n3)C2)cc1` (centres undefined) as the compound, how does the Potency read?
**A.** inactive

**Q.** For `CC1CCCN(C(=O)c2cc(-c3ccccc3C(F)(F)F)nc3c2cnn3C)C1` (centres undefined), which Potency is on record?
**A.** inconclusive: 63.1 µM [inhibitor, partial curve, poor fit]

**Q.** For `O=C1NC2(CCN(Cc3ccc(F)cc3)CC2)Oc2ccccc21`, which Potency is on record?
**A.** inconclusive: 100 µM [inhibitor, partial curve, poor fit]

**Q.** Which Potency does the source give for `COc1ccc(-c2cc(N3CCN(C(=O)c4cc(F)ccc4Cl)CC3)n[nH]2)cc1` here?
**A.** inconclusive: 56.2 µM [inhibitor, partial curve, poor fit]

**Q.** With `COc1ccccc1C(=O)N1CCN(c2ccnc3ccnn23)CC1` as the compound, how does the Potency read?
**A.** inconclusive: 79.4 µM [inhibitor, partial curve]

**Q.** For `CC(C)CNC(=O)C1COC2(CCN(C(=O)c3ccc(F)cc3F)CC2)N1C(=O)c1ccccc1` (centres undefined), which Potency is on record?
**A.** inconclusive: 89.1 µM [inhibitor, single point]
